Data as given in the supplement of paper PMC8728848.
The other results are listed elsewhere or left out.

Assays:
Experiment in all cases: glycan array binding signal (z-score within array); higher = stronger binding
Settings in all cases: glycan notation: IUPAC condensed, linker removed
[1] = target: Neu5Ac(a2-3)Gal(b1-4)GlcNAc(b1-3)[Neu5Ac(a2-3)Gal(b1-4)GlcNAc(b1-6)]GalNAc
Procedure, shortened: (§1)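 Columns mapping to the same glycan were averaged after glycan names were converted to IUPAC-condensed notation. The data come from 3228 arrays in the Consortium for Functional Glycomics database, limited to those with an available protein sequence. Binding is reported as a within-array Z-score averaged across arrays of one protein sequence and across linkers.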

[2] = target: Neu5Ac(a2-3)Gal(b1-4)GlcNAc(b1-6)GalNAc
Procedure, shortened: as §1

[3] = target: Neu5Ac(a2-3)Gal(b1-4)GlcNAc(b1-6)[Gal(b1-3)]GalNAc
Procedure, shortened: as §1

[4] = target: Neu5Ac(a2-3)Gal(b1-4)GlcNAc(b1-6)[Neu5Ac(a2-3)Gal(b1-3)]GalNAc
Procedure, shortened: as §1

[5] = target: Neu5Ac(a2-3)Gal(b1-4)GlcNAc6S
Procedure, shortened: as §1

[6] = target: Neu5Ac(a2-3)Gal(b1-4)[Fuc(a1-3)]GlcNAc
Procedure, shortened: as §1

[7] = target: Neu5Ac(a2-3)Gal(b1-4)[Fuc(a1-3)]GlcNAc(b1-2)Man
Procedure, shortened: as §1

[8] = target: Neu5Ac(a2-3)Gal(b1-4)[Fuc(a1-3)]GlcNAc(b1-3)Gal
Procedure, shortened: as §1

[9] = target: Neu5Ac(a2-3)Gal(b1-4)[Fuc(a1-3)]GlcNAc(b1-3)Gal(b1-4)GlcNAc
Procedure, shortened: as §1

[10] = target: Neu5Ac(a2-3)Gal(b1-4)[Fuc(a1-3)]GlcNAc(b1-3)Gal(b1-4)[Fuc(a1-3)]GlcNAc(b1-3)Gal(b1-4)[Fuc(a1-3)]GlcNAc
Procedure, shortened: as §1

[11] = target: Neu5Ac(a2-3)Gal(b1-4)[Fuc(a1-3)]GlcNAc(b1-3)GalNAc
Procedure, shortened: as §1

[12] = target: Neu5Ac(a2-3)Gal(b1-4)[Fuc(a1-3)]GlcNAc(b1-6)[Gal(b1-3)]GalNAc
Procedure, shortened: as §1

[13] = target: Neu5Ac(a2-3)Gal(b1-4)[Fuc(a1-3)]GlcNAc(b1-6)[Neu5Ac(a2-3)Gal(b1-3)]GalNAc
Procedure, shortened: as §1

[14] = target: Neu5Ac(a2-3)Gal(b1-4)[Fuc(a1-3)]GlcNAc6S
Procedure, shortened: as §1

[15] = target: Neu5Ac(a2-3)Gal6S(b1-4)GlcNAc
Procedure, shortened: as §1

[16] = target: Neu5Ac(a2-3)Gal6S(b1-4)[Fuc(a1-3)]GlcNAc
Procedure, shortened: as §1

Neu5Ac(a2-3)GalNAc = target: Neu5Ac(a2-3)GalNAc
Procedure, shortened: as §1

[17] = target: Neu5Ac(a2-3)GalNAc(b1-4)GlcNAc
Procedure, shortened: as §1

[18] = target: Neu5Ac(a2-3)[GalNAc(b1-4)]Gal(b1-4)Glc
Procedure, shortened: as §1

[19] = target: Neu5Ac(a2-3)[GalNAc(b1-4)]Gal(b1-4)GlcNAc
Procedure, shortened: as §1

[20] = target: Neu5Ac(a2-3)[GalNAc(b1-4)]Gal(b1-4)GlcNAc(b1-3)GalNAc
Procedure, shortened: as §1

[21] = target: Neu5Ac(a2-3)[Neu5Ac(a2-6)]GalNAc
Procedure, shortened: as §1

Neu5Ac(a2-6)Gal = target: Neu5Ac(a2-6)Gal
Procedure, shortened: as §1

[22] = target: Neu5Ac(a2-6)Gal(b1-3)GlcNAc(b1-3)[Gal(b1-4)GlcNAc(b1-6)]Gal(b1-4)Glc
Procedure, shortened: as §1

Neu5Ac(a2-6)Gal(b1-4)Glc = target: Neu5Ac(a2-6)Gal(b1-4)Glc
Procedure, shortened: as §1

[23] = target: Neu5Ac(a2-6)Gal(b1-4)GlcNAc
Procedure, shortened: as §1

[24] = target: Neu5Ac(a2-6)Gal(b1-4)GlcNAc(b1-2)Man
Procedure, shortened: as §1

[25] = target: Neu5Ac(a2-6)Gal(b1-4)GlcNAc(b1-2)Man(a1-3)Man(b1-4)GlcNAc(b1-4)GlcNAc
Procedure, shortened: as §1

[26] = target: Neu5Ac(a2-6)Gal(b1-4)GlcNAc(b1-2)Man(a1-3)[Gal(b1-4)GlcNAc(b1-2)Man(a1-6)]Man(b1-4)GlcNAc(b1-4)GlcNAc
Procedure, shortened: as §1

[27] = target: Neu5Ac(a2-6)Gal(b1-4)GlcNAc(b1-2)Man(a1-3)[GlcNAc(b1-2)Man(a1-6)]Man(b1-4)GlcNAc(b1-4)GlcNAc
Procedure, shortened: as §1

[28] = target: Neu5Ac(a2-6)Gal(b1-4)GlcNAc(b1-2)Man(a1-3)[GlcNAc(b1-4)][Neu5Ac(a2-6)Gal(b1-4)GlcNAc(b1-2)Man(a1-6)]Man(b1-4)GlcNAc(b1-4)GlcNAc
Procedure, shortened: as §1

B1: PkBDPgamma (Plasmodium knowlesi) (protein)
chain: SAINQIFLQNNVMDKCNDKRKRGERDWDCPTEKDVCIPDRRYQLCMMEITNLVDTDTHFHSDIIFRKSYSRRRLIYDVGGRGDLLLKKYNNVYSEDLCKDIKWSLQDFGDIIMGTDMEGIGYSLVVQNNLRSIFGTGTSAELDRKKWWNDHKKDIWKAMILSVKEKNRYSAWNCKEDVQIKVEPQIYRWIREWGRDYMSEFREQRRKLNEKCEDKLYYSTMLICTLPPCNNACKSYDEWITGKKKQWDVLSTKFSSVKKAQKIETENIARAYDILKQELNGFNEVTFENEINKRDKLYNYFCVCIVQEARKNTQENVKNVGSGVESKAPSSNPINEAVKSSSGEGKVQEDSAHRSVNEGEGKSSTNEADPGSQPGAAASGGGSGGGTGGGVDLAPQMLRELQETNAALQDVRELLRQQVKEITFLKNTVMECDACGGPLDRNLPPLAPLGPTGGWSHPQFEK
With B1 the “glycan array binding signal (z-score)” value [1] was 0.103, the “glycan array binding signal (z-score)” value [2] was -0.303 and the “glycan array binding signal (z-score)” value [3] was -0.158. The “glycan array binding signal (z-score)” value [4] was -0.347, the “glycan array binding signal (z-score)” value [5] was -0.024 and the “glycan array binding signal (z-score)” value [6] was -0.359. For the same binder, the “glycan array binding signal (z-score)” value [7] was -0.529, the “glycan array binding signal (z-score)” value [8] was -0.145 and the “glycan array binding signal (z-score)” value [9] was 0.574. For the same binder, the “glycan array binding signal (z-score)” value [10] was 0.422, the “glycan array binding signal (z-score)” value [11] was 0.755 and the “glycan array binding signal (z-score)” value [12] was 0.362. The “glycan array binding signal (z-score)” value [13] was 0.233, the “glycan array binding signal (z-score)” value [14] was 0.082 and the “glycan array binding signal (z-score)” value [15] was -0.294. The “glycan array binding signal (z-score)” value [16] was -0.468, the “glycan array binding signal (z-score)” value (Neu5Ac(a2-3)GalNAc) was -0.119 and the “glycan array binding signal (z-score)” value [17] was -0.217. For the same binder, the “glycan array binding signal (z-score)” value [18] was -0.386, the “glycan array binding signal (z-score)” value [19] was -0.169 and the “glycan array binding signal (z-score)” value [20] was -0.323. For the same binder, the “glycan array binding signal (z-score)” value [21] was -0.392, the “glycan array binding signal (z-score)” value (Neu5Ac(a2-6)Gal) was -0.307 and the “glycan array binding signal (z-score)” value [22] was -0.324. The “glycan array binding signal (z-score)” value (Neu5Ac(a2-6)Gal(b1-4)Glc) was -0.286, the “glycan array binding signal (z-score)” value [23] was -0.428 and the “glycan array binding signal (z-score)” value [24] was 0.007. For the same binder, the “glycan array binding signal (z-score)” value [25] was -0.257, the “glycan array binding signal (z-score)” value [26] was -0.11 and the “glycan array binding signal (z-score)” value [27] was -1.14. For the same binder, the “glycan array binding signal (z-score)” value [28] was -0.042.
